# Measured values from PubChem BioAssay (NCATS).
# Values joined by “and” are separate entries in the source; they are usually repeats but may differ in a detail not shown here. Identical values can stand only once. The inconclusive results got no clear call from the source; some entries with a clear call stand among them for comparison. Entries that show only a call come without a potency. For some of these results: Where the call is inconclusive, the potency comes from a doubtful curve fit. Active and inactive are the calls of the source. Calls come from the whole dose curve; as a rule, active = well fitted curve in the direction sought with a large enough effect; inconclusive = small, poorly fitted or top-dose-only effect, or another doubt; inactive = no such curve, though single readings can be large; an effect the other way counts as inactive or inconclusive.
# Key:
# [1] = qHTS of pediatric cancer cell lines to identify multiple opportunities for drug repurposing: Primary screen for A673 cells (AID 1347092); conditions: A673 Ewing sarcoma viability, CellTiter-Glo ATP luminescence, 48 h; activity change, negative = cytotoxic: at 46 µM (top of the series); note: nearly all actives have a fitted effect of over 45% in size
# Outline: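 48 h compound exposure, A673, 500-1,000 cells/well, 37 degrees C/5% CO2. MIPE: 11-point, 0.78 nM-46 µM; NPC: 8-point, 0.59 nM-46 µM (final). Readout CellTiter-Glo luminescence after 15 min RT.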
# [2] = Primary qHTS for small molecule stabilizers of the endoplasmic reticulum resident proteome: Secreted ER Calcium Modulated Protein (SERCaMP) assay (AID 1508630); conditions: SH-SY5Y GLuc-SERCaMP (Gaussia luciferase released on ER calcium loss) secretion, thapsigargin, luminescence; activity change, negative = inhibition: at 38.4 µM (top of the series) unless noted; note: potency is the fitted concentration of half-maximal effect
# Outline: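 The SH-SY5Y reporter protocol was run at 3 concentrations up to 38.3 uM (primary) or 11 concentrations (follow-up): 16 h compound, 100 nM thapsigargin for 4 h, then extracellular luciferase luminescence.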
# [3] = molecular target: Glutathione peroxidase 1 (Homo sapiens) (UniProt P07203); test: Primary qHTS Assay for Inhibitors of Recombinant Selenoprotein Glutathione Peroxidase 1 (GPX1) (AID 1845191); note: potency is the fitted concentration of half-maximal effect; nearly all actives have a fitted effect of over 65% in size
# Outline: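 GR-coupled readout: NADPH consumption tracked by fluorescence, ex 340/em 450 nm, at t=0 and after 15 min at RT. Final mix 10 nM GPX1, 1 mM GSH, 0.5 mM CHP, 0.5 mM NADPH, 100 nM GR, 0.01% BSA, following 30 min enzyme–compound preincubation.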
# [4] = molecular target: Phospholipid hydroperoxide glutathione peroxidase GPX4 (Homo sapiens) (UniProt P36969); test: Primary qHTS Assay for Inhibitors of Recombinant Selenoprotein Glutathione Peroxidase 4 (GPX4) (AID 1845192); conditions: activity change, negative = inhibition: at 50 µM (top of the series) unless noted; note: potency is the fitted concentration of half-maximal effect; nearly all actives have a fitted effect of over 65% in size
# Outline: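 Steps: GPX4 plus compound, 30 min RT; add GR/GSH/NADPH master mix; start with cumene hydroperoxide; read 340/450 nm fluorescence at 0 and 15 min. Finals were 200 nM GPX4, 1 mM GSH, 0.5 mM CHP, 0.5 mM NADPH, 100 nM GR.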
# [5] = Primary fluorescence-based thiol-reactive (MSTI) qHTS assay for identification of artifact compounds. (AID 1845221);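 note: thiol-reactive compounds lower the probe fluorescence signal; nearly all actives have a fitted effect of over 65% in size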
# Outline: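 Compounds were incubated 1 h at room temperature in the dark with the MSTI probe (4 uM) in PBS pH 7.4, 2% DMSO. Signals were normalized between Acetyl-MSTI and MSTI.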
# [6] = Primary redox qHTS assay for identification of artifact compounds. (AID 1845223); note: potency is the fitted concentration of half-maximal effect
# Outline: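 Redox-cycling detection via DTT (250 uM final) oxidation coupled to Amplex Red (25 uM)/HRP (250 mU/mL) in HBSS. 15 min preincubation plus 30 min after DTT, room temperature. Ex/Em 525/598 nm; 4-parameter Hill fit against DMSO and 10 uM DA3003.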
# [7] = Quantitative High-Throughput drug screen in 47 multiple myeloma cell lines against the NCATS MIPE library collection: FR4_PLB cell viability assay (AID 1918924; note: nearly all actives have a fitted effect of over 35% in size)
# Outline: (§1)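 Steps: seed 500 cells per well; pin-transfer MIPE 4.0 library; incubate 48 h at 37C, 5% CO2, humidified; add CellTiter-Glo, 5 min room temperature; read luminescence.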
# [8] = Quantitative High-Throughput drug screen in 47 multiple myeloma cell lines against the NCATS MIPE library collection: Delta47_JCRB cell viability assay (AID 1918925; note: nearly all actives have a fitted effect of over 45% in size)
# Outline: (§2)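 Relative luminescence from CellTiter-Glo served as the viability signal, referenced to DMSO-treated (100%) and cell-free medium (0%) controls. Treatment lasted 48 hours at 37C with 500 cells per well.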
# [9] = Quantitative High-Throughput drug screen in 47 multiple myeloma cell lines against the NCATS MIPE library collection: ARP1_JJKsccF8 cell viability assay (AID 1918928; note: nearly all actives have a fitted effect of over 40% in size)
# Outline: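 Viability screen: myeloma cells (500/well) incubated 48 h at 37 °C, humidified 5% CO2, with pinned library compounds; CellTiter-Glo added, luminescence read; DMSO wells set 100%, medium-only wells 0%.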
# [10] = Quantitative High-Throughput drug screen in 47 multiple myeloma cell lines against the NCATS MIPE library collection: Karpas417_ECACC cell viability assay (AID 1918961); conditions: Karpas417 myeloma viability, CellTiter-Glo ATP luminescence, 48 h; viability (% of DMSO): at 45.8 µM (top of the series)
# Outline: (§3)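 CellTiter-Glo luminescence (ATP) after 48 h compound exposure, 37C/5% CO2; 500 cells/well; MIPE 4.0 approved/investigational drugs pinned in; DMSO = 100%, media only = 0% viability.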
# [11] = Quantitative High-Throughput drug screen in 47 multiple myeloma cell lines against the NCATS MIPE library collection: KHM11_PLB cell viability assay (AID 1918962); note: nearly all actives have a fitted effect of over 35% in size
# Outline: as §1
# [12] = Quantitative High-Throughput drug screen in 47 multiple myeloma cell lines against the NCATS MIPE library collection: JIM1_ECACC cell viability assay (AID 1918964); conditions: JIM1 myeloma viability, CellTiter-Glo ATP luminescence, 48 h; viability (% of DMSO): at 45.8 µM (top of the series)
# Outline: as §2
# [13] = Quantitative High-Throughput drug screen in 47 multiple myeloma cell lines against the NCATS MIPE library collection: INA6_PLB cell viability assay (AID 1918965; note: potency is the fitted concentration of half-maximal effect; nearly all actives have a fitted effect of over 55% in size)
# Outline: as §3
# [14] = Quantitative High-Throughput drug screen in 47 multiple myeloma cell lines against the NCATS MIPE library collection: JJN3_DSMZ cell viability assay (AID 1918966; note: potency is the fitted concentration of half-maximal effect; nearly all actives have a fitted effect of over 50% in size); conditions: JJN3 myeloma cells viability, CellTiter-Glo ATP, 48 h; viability, % of DMSO: at 45.8 µM (top of the series)
# Outline: as §2
# [15] = Quantitative High-Throughput drug screen in 47 multiple myeloma cell lines against the NCATS MIPE library collection: H1112_PLB cell viability assay (AID 1918967; note: nearly all actives have a fitted effect of over 30% in size)
# Outline: as §2
# [16] = Quantitative High-Throughput drug screen in 47 multiple myeloma cell lines against the NCATS MIPE library collection: KMS27_JCRB cell viability assay (AID 1918970); note: nearly all actives have a fitted effect of over 30% in size
# Outline: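 CellTiter-Glo luminescence after 48 h drug exposure at 37 °C; 500 cells/well, 1536-well format, pin-tool compound addition; DMSO = 100%, media-only = 0% viability.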
# [17] = Quantitative High-Throughput drug screen in 47 multiple myeloma cell lines against the NCATS MIPE library collection: KMS12BM_JCRB cell viability assay (AID 1918971); note: nearly all actives have a fitted effect of over 35% in size
# Outline: (§4)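 Luminescent ATP measurement with CellTiter-Glo gives viability, scaled between DMSO-only wells (100%) and media-only wells (0%). Cells, 500 per well, faced library compounds for 48 hours at 37C.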
# [18] = Quantitative High-Throughput drug screen in 47 multiple myeloma cell lines against the NCATS MIPE library collection: KMS20_JCRB cell viability assay (AID 1918973); conditions: CellTiter-Glo ATP, 48 h; viability (% of DMSO): at 45.8 µM (top of the series); note: potency is the fitted concentration of half-maximal effect; nearly all actives have a fitted effect of over 45% in size
# Outline: as §2
# [19] = Quantitative High-Throughput drug screen in 47 multiple myeloma cell lines against the NCATS MIPE library collection: KMS21BM_JCRB cell viability assay (AID 1918974); note: potency is the fitted concentration of half-maximal effect
# Outline: as §2
# [20] = Quantitative High-Throughput drug screen in 47 multiple myeloma cell lines against the NCATS MIPE library collection: KMS26_JCRB cell viability assay (AID 1918975); conditions: KMS26 myeloma cells viability, CellTiter-Glo ATP, 48 h; viability (% of DMSO): at 45.8 µM (top of the series); note: potency is the fitted concentration of half-maximal effect; nearly all actives have a fitted effect of over 45% in size
# Outline: as §4
# [21] = Quantitative High-Throughput drug screen in 47 multiple myeloma cell lines against the NCATS MIPE library collection: MMM1_PLB cell viability assay (AID 1918976); note: nearly all actives have a fitted effect of over 35% in size
# Outline: (§5)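 500 cells/well; MIPE 4.0 drugs pin-transferred; 48 h, 37C, 5% CO2. CellTiter-Glo, 5 min RT, luminescence. Controls: DMSO 100%, media 0%.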
# [22] = Quantitative High-Throughput drug screen in 47 multiple myeloma cell lines against the NCATS MIPE library collection: MOLP8_DSMZ cell viability assay (AID 1918977); conditions: MOLP8 myeloma viability, CellTiter-Glo ATP luminescence, 48 h; viability (% of control): at 45.8 µM (top of the series)
# Outline: as §5
# [23] = Quantitative High-Throughput drug screen in 47 multiple myeloma cell lines against the NCATS MIPE library collection: MM1R_ATCC cell viability assay (AID 1918981); note: nearly all actives have a fitted effect of over 35% in size
# Outline: as §5
# [24] = Quantitative High-Throughput drug screen in 47 multiple myeloma cell lines against the NCATS MIPE library collection: L363_DSMZ cell viability assay (AID 1918984); conditions: L363 myeloma viability, CellTiter-Glo ATP luminescence, 48 h; viability (% of control): at 45.8 µM (top of the series); note: potency is the fitted concentration of half-maximal effect; nearly all actives have a fitted effect of over 40% in size
# Outline: as §5
# [25] = Quantitative High-Throughput drug screen in 47 multiple myeloma cell lines against the NCATS MIPE library collection: KMS34_JCRB cell viability assay (AID 1918985); note: nearly all actives have a fitted effect of over 40% in size
# Outline: as §5
# [26] = Quantitative High-Throughput drug screen in 47 multiple myeloma cell lines against the NCATS MIPE library collection: OCIMY5_PLB cell viability assay (AID 1918988); note: nearly all actives have a fitted effect of over 65% in size
# Outline: as §5
# [27] = Quantitative High-Throughput drug screen in 47 multiple myeloma cell lines against the NCATS MIPE library collection: OPM1_PLB cell viability assay (AID 1918989); note: nearly all actives have a fitted effect of over 40% in size
# Outline: as §5
# [28] = Quantitative High-Throughput drug screen in 47 multiple myeloma cell lines against the NCATS MIPE library collection: SKMM1_PLB cell viability assay (AID 1919863); conditions: SKMM1 myeloma viability, CellTiter-Glo ATP, 48 h; viability: stronger effect = lower value
# Outline: as §5
# [29] = Quantitative High-Throughput drug screen in 47 multiple myeloma cell lines against the NCATS MIPE library collection: VP6_DJ cell viability assay (AID 1919867); note: nearly all actives have a fitted effect of over 40% in size
# Outline: as §5
# [30] = Quantitative High-Throughput drug screen in 47 multiple myeloma cell lines against the NCATS MIPE library collection: UTMC2_PLB cell viability assay (AID 1919868); conditions: CellTiter-Glo ATP luminescence, 48 h; viability (% of DMSO control): at 45.8 µM (top of the series); note: potency is the fitted concentration of half-maximal effect; nearly all actives have a fitted effect of over 55% in size
# Outline: as §5
# [31] = Quantitative High-Throughput drug screen in 47 multiple myeloma cell lines against the NCATS MIPE library collection: PE2_PLB cell viability assay (AID 1919869); note: nearly all actives have a fitted effect of over 35% in size
# Outline: as §5
# [32] = Quantitative High-Throughput drug screen in 47 multiple myeloma cell lines against the NCATS MIPE library collection: KMS28BM_JCRB cell viability assay (AID 1919874); note: nearly all actives have a fitted effect of over 35% in size
# Outline: as §5
# SKOV3 = test: Primary qHTS to identify gynecologic anti-cancer compounds using libraries of approved drugs and bioactive compounds (AID 1345084); conditions: Gynecologic cancer cell panel viability, ATPlite luminescence, 48 h; series mostly up to 57.5 µM; note: nearly all actives have a fitted effect of over 55% in size
# Outline: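 Luminescence from the ATPlite ATP-monitoring reagent indicates viable cell number; lower signal means cytotoxicity. Cells received compound 16 h after seeding and were exposed for 48 h across five concentrations.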
# [33] = Drug repurposing screens with cells derived from glioblastoma tumor samples (AID 1345199); conditions: GBM patient neurospheres viability, ATP luminescence, 48 h; Potency: tumour line A unless noted; activity, negative = cell killing: at 46 µM (top of the series), tumour line A unless noted
# Outline: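 Primary testing used CD133+ neurospheres from four GBM patients, seven concentrations, 48 h exposure and ATP-based viability; confirmation added three slower-growing patient lines.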
# Tags give direction and shape of the fitted curve.
# UniProt P36969, sequence (P36969 whole entry, looked up): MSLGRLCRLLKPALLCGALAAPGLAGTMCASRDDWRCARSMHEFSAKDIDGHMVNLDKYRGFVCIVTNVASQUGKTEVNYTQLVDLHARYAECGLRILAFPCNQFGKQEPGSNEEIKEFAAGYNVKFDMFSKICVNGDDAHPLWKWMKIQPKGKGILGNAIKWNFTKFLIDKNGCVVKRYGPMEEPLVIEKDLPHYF
# UniProt P07203, sequence (P07203 whole entry, looked up): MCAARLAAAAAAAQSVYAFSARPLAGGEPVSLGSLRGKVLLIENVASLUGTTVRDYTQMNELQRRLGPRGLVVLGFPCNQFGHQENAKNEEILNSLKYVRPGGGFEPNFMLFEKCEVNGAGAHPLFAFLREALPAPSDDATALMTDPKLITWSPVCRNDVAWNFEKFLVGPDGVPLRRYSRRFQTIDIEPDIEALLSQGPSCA
smiles,measurement,setting,value
Cc1onc(-c2ccccc2Cl)c1C(=O)N[C@@H]1C(=O)N2[C@@H]1SC(C)(C)[C@@H]2C(=O)O,Potency,[1],inactive
same,Potency,[2],"inconclusive: 2240 nM [inhibitor, full curve, poor fit]"
same,Potency,[3],"inconclusive: 25500 nM [inhibitor, partial curve]"
same,Potency,[4],"inconclusive: 22400 nM [inhibitor, partial curve, poor fit]"
same,Potency,[5],inactive
same,Potency,[6],"inactive and inconclusive: 29.9 µM [activator, single point]"
same,Potency,[7],inactive
same,Potency,[8],inactive
same,Potency,[9],inactive
same,Potency,[10],inactive
same,Potency,[11],inactive
same,viability (% of DMSO),[12],inconclusive: 84.2% [cytotoxic]
same,Potency,[13],"inconclusive: 1480 nM [rising, full curve, poor fit]"
same,Potency,[14],"inconclusive: 743 nM [cytotoxic, full curve, poor fit]"
same,Potency,[15],inactive
same,Potency,[16],inactive
same,Potency,[17],inactive
same,Potency,[18],"inconclusive: 2.3 nM [rising, full curve, poor fit]"
same,Potency,[19],"inconclusive: 5.9 nM [rising, full curve, poor fit]"
same,Potency,[20],"inconclusive: 37200 nM [cytotoxic, single point]"
same,Potency,[21],inactive
same,Potency,[22],"inconclusive: 16.6 nM [cytotoxic, full curve, poor fit]"
same,Potency,[23],inactive
same,Potency,[24],"inconclusive: 2.1 nM [rising, full curve, poor fit]"
same,Potency,[25],inactive
same,Potency,[26],inactive
same,Potency,[27],inactive
same,Potency,[28],"inconclusive: 20.9 nM [cytotoxic, full curve, poor fit]"
same,Potency,[29],inactive
same,Potency,[30],"inconclusive: 37200 nM [cytotoxic, single point]"
same,Potency,[31],inactive
same,Potency,[32],inactive
same,Potency,SKOV3,inactive
same,Potency,[33],"inconclusive: 63.1 nM [inhibitor, full curve, poor fit]"
